Source: patent publication US20170306033A1 (Amgen, published 2017)
Residue numbers refer to the chain shown, from its start. Blank lines part the entries; values can stand above or below the binder they belong to.

Key:
[1] = biological target: human CGRP receptor (human, UniProt Q16602 23-461; O60894 27-148); assay: cell-based or functional assay
[2] = biological target: T1, human PAC1 receptor (human, UniProt P41586 21-468); assay: cell-based or functional assay
T1 sequence: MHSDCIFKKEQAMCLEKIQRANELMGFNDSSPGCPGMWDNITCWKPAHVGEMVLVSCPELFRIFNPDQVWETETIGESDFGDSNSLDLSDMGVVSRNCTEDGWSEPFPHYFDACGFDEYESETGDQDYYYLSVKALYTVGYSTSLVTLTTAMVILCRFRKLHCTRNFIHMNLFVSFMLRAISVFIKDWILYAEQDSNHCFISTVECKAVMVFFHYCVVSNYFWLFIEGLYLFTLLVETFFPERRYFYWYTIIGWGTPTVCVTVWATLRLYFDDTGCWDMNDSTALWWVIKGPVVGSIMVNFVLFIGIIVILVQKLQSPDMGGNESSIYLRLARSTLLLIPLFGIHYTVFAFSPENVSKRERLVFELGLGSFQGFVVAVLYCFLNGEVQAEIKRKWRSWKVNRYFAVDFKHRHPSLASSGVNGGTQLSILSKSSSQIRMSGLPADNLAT

Chain of UniProt Q16602 (Q16602 23-461 limits assumed, chain 1 of 2): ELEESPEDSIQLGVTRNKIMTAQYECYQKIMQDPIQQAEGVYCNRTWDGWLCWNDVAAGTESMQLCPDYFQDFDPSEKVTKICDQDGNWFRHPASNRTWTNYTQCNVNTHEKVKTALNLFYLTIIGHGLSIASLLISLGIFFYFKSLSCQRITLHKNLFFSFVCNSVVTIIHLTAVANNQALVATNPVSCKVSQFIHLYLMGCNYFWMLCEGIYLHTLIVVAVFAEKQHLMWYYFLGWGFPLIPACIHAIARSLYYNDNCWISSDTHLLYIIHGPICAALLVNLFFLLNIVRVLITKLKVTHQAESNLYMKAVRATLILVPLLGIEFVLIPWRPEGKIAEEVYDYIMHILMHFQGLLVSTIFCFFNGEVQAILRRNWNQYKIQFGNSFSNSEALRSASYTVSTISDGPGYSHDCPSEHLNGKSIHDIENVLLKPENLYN
Chain of UniProt Q16602 (O60894 27-148 limits assumed, chain 2 of 2, further chain): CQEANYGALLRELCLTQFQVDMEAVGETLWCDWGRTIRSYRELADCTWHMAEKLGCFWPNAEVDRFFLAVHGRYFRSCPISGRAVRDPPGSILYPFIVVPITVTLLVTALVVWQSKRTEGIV

B1: iPS:328046 (bispecific antibody, human IgG1, kappa, lambda, N297G)
light 1: DIVMTQSPDSLAVSLGERATINCKSSQSVLYSSNNKNFLTWYQQKPGQPPKLLIYRASTRESGVPDRFSGSGSGTDFTLTISSLQAEDVAVYFCQQYYSAPFTFGPGTRVDIKRTVAAPSVFIFPPSDEQLKSGTASVVCLLNNFYPREAKVQWKVDNALQSGNSQESVTEQDSKDSTYSLESTLTLSKADYEKHKVYACEVTHQGLSSPVTKSFNRGEC
heavy 1: QVQLQESGPGLVKPSETLSLTCTVSGGSISSGGYYWSWIRQPPGKGLEWIGYIYYSGNTYYNPSLKSRVTISVDTSKNQFSLKLRSVTAADTAVYYCTRGGAARGMDVWGQGTTVTVSSASTKGPSVFPLAPSSKSTSGGTAALGCLVKDYFPEPVTVSWNSGALTSGVHTFPAVLQSSGLYSLKSVVTVPSSSLGTQTYICNVNHKPSNTKVDKKV[left out - human IgG1 Fc with R292C N297G V302C K370D K392D K409D (EU numbers)]
light 2: QSVLTQSPSASGTPGQRVTISCSGSSSNIGSNYVYWYQQLPGAAPKLLILRNNQRPSGVPDRFSGSKSGTSASLTISGLRSEDEADYYCAAWDDSLSGWVFGGGTKLTVLGQPKANPTVTLFPPSSEELQANKATLVCLISDFYPGAVTVAWKADGSPVKAGVETTKPSKQSNNKYAAKSYLSLTPEQWKSHRSYSCQVTHEGSTVEKTVAPTECS
heavy 2: [left out - about 100 residues]DRTGYSISWSSYYYYYGMDVWGQGTTVTVSSASTKGPSVFPLAPSSKSTSGGTAALGCLVKDYFPEPVTVSWNSGALTSGVHTFPAVLQSSGLYSLESVVTVPSSSLGTQTYICNVNHKPSNTKVDKKVEPKSCDKTHTCPPCPAPELLGGPSVFLFPPKPKDTLMISRTPEVTCVVVDVSHEDPEVKFNWYVDGVEVHNAKTKPCEEQYGSTYRCVSVLTVLHQDWLNGKEYKCKVSNKALPAPIEKTISKAKGQPREPQVYTLPPSRKKMTKNQVSLTCLVKGFYPSDIAVEWESNGQPENNYKTTPPVLKSDGSFFLYSKLTVDKSRWQQGNVFSCSVMHEALHNHYTQKSLSLSPGK
- % inhibition of human CGRPR [1]: 73%
- % inhibition of human PAC1 [2]: 3%

B4: iPS:328038 (bispecific antibody, human IgG1, kappa, lambda)
light 1: B1 light 1
heavy 1: QVQLQESGPGLVKPSETLSLTCTVSGGSISSGGYYWSWIRQPPGKGLEWIGYIYYSGNTYYNPSLKSRVTISVDTSKNQFSLKLRSVTAADTAVYYCTRGGAARGMDVWGQGTTVTVSSASTKGPSVFPLAPSSKSTSGGTAALGCLVKDYFPEPVTVSWNSGALTSGVHTFPAVLQSSGLYSLKSVVTVPSSSLGTQTYICNVNHKPSNTKVDKKV[left out - human IgG1 Fc with changes]
light 2: B1 light 2 with S7P, L50F, T75A
heavy 2: [left out - about 100 residues]DRTGYSISWSSYYYYYGMDVWGQGTTVTVSSASTKGPSVFPLAPSSKSTSGGTAALGCLVKDYFPEPVTVSWNSGALTSGVHTFPAVLQSSGLYSLESVVTVPSSSLGTQTYICNVNHKPSNTKVDKKVEPKSCDKTHTCPPCPAPELLGGPSVFLFPPKPKDTLMISRTPEVTCVVVDVSHEDPEVKFNWYVDGVEVHNAKTKPCEEQYGSTYRCVSVLTVLHQDWLNGKEYKCKVSNKALPAPIEKTISKAKGQPREPQVYTLPPSRKEMTKNQVSLTCLVKGFYPSDIAVEWESNGQPENNYKTTPPVLKSDGSFFLYSKLTVDKSRWQQGNVFSCSVMHEALHNHYTQKSLSLSPGK
- % inhibition of human CGRPR [1]: 69%
- % inhibition of human PAC1 [2]: 6%

B5: iPS:328041 (bispecific antibody, human IgG1, kappa, lambda, N297G)
light 1: B1 light 1
heavy 1: B1 heavy 1
light 2: B1 light 2 with S7P, L50F, T75A
heavy 2: [left out - about 100 residues]DRTGYSISWSSYYYYYGMDVWGQGTTVTVSSASTKGPSVFPLAPSSKSTSGGTAALGCLVKDYFPEPVTVSWNSGALTSGVHTFPAVLQSSGLYSLESVVTVPSSSLGTQTYICNVNHKPSNTKVDKKVEPKSCDKTHTCPPCPAPELLGGPSVFLFPPKPKDTLMISRTPEVTCVVVDVSHEDPEVKFNWYVDGVEVHNAKTKPCEEQYGSTYRCVSVLTVLHQDWLNGKEYKCKVSNKALPAPIEKTISKAKGQPREPQVYTLPPSRKKMTKNQVSLTCLVKGFYPSDIAVEWESNGQPENNYKTTPPVLKSDGSFFLYSKLTVDKSRWQQGNVFSCSVMHEALHNHYTQKSLSLSPGK
- % inhibition of human CGRPR [1]: 82%
- % inhibition of human PAC1 [2]: 17%

Now from value to binder:

- % inhibition of human CGRPR [1]: 75%
- % inhibition of human PAC1 [2]: 8%
B2: iPS:328043 (bispecific antibody, human IgG1, kappa, lambda)
light 1: B1 light 1
heavy 1: QVQLQESGPGLVKPSETLSLTCTVSGGSISSGGYYWSWIRQPPGKGLEWIGYIYYSGNTYYNPSLKSRVTISVDTSKNQFSLKLRSVTAADTAVYYCTRGGAARGMDVWGQGTTVTVSSASTKGPSVFPLAPSSKSTSGGTAALGCLVKDYFPEPVTVSWNSGALTSGVHTFPAVLQSSGLYSLKSVVTVPSSSLGTQTYICNVNHKPSNTKVDKKV[left out - human IgG1 Fc with changes]
light 2: B1 light 2
heavy 2: [left out - about 100 residues]DRTGYSISWSSYYYYYGMDVWGQGTTVTVSSASTKGPSVFPLAPSSKSTSGGTAALGCLVKDYFPEPVTVSWNSGALTSGVHTFPAVLQSSGLYSLESVVTVPSSSLGTQTYICNVNHKPSNTKVDKKVEPKSCDKTHTCPPCPAPELLGGPSVFLFPPKPKDTLMISRTPEVTCVVVDVSHEDPEVKFNWYVDGVEVHNAKTKPCEEQYGSTYRCVSVLTVLHQDWLNGKEYKCKVSNKALPAPIEKTISKAKGQPREPQVYTLPPSRKEMTKNQVSLTCLVKGFYPSDIAVEWESNGQPENNYKTTPPVLKSDGSFFLYSKLTVDKSRWQQGNVFSCSVMHEALHNHYTQKSLSLSPGK

- % inhibition of human CGRPR [1]: 73%
- % inhibition of human PAC1 [2]: 82%
B3: iPS:327109 (bispecific antibody, human IgG1, kappa, lambda, N297G)
light 1: DIQMTQSPSSLSASVGDRITITCRASQSISRYLNWYQQKPGKAPKLLIYAASSLQSGIPSRFSGSGSGTDFTLTINSLQPEDFATYFCQQSYSPPFTFGPGTKVDIKRTVAAPSVFIFPPSDEQLKSGTASVVCLLNNFYPREAKVQWKVDNALQSGNSQESVTEQDSKDSTYSLESTLTLSKADYEKHKVYACEVTHQGLSSPVTKSFNRGEC
heavy 1: QVQLQQSGPGLVKPSQTLSLTCAISGDSVSSNSATWNWIRQSPSRGLEWLGRTYYRSKWSNHYAVSVKSRITINPDTSKSQFSLQLNSVTPEDTAVYYCARGTWKQLWFLDHWGQGTLVTVSSASTKGPSVFPLAPSSKSTSGGTAALGCLVKDYFPEPVTVSWNSGALTSGVHTFPAVLQSSGLYSLKSVVTVPSSSLGTQTYICNVNHKPSNTKVDKKV[left out - human IgG1 Fc with R292C N297G V302C K370D K392D K409D (EU numbers)]
light 2: B1 light 2 with S7P, L50F, T75A
heavy 2: [left out - about 100 residues]DRTGYSISWSSYYYYYGMDVWGQGTTVTVSSASTKGPSVFPLAPSSKSTSGGTAALGCLVKDYFPEPVTVSWNSGALTSGVHTFPAVLQSSGLYSLESVVTVPSSSLGTQTYICNVNHKPSNTKVDKKVEPKSCDKTHTCPPCPAPELLGGPSVFLFPPKPKDTLMISRTPEVTCVVVDVSHEDPEVKFNWYVDGVEVHNAKTKPCEEQYGSTYRCVSVLTVLHQDWLNGKEYKCKVSNKALPAPIEKTISKAKGQPREPQVYTLPPSRKKMTKNQVSLTCLVKGFYPSDIAVEWESNGQPENNYKTTPPVLKSDGSFFLYSKLTVDKSRWQQGNVFSCSVMHEALHNHYTQKSLSLSPGK
